Here are results for 3 molecules from patent US20220024991A1 (GENOME PROTECTION, published 2022).

The target of experiment [1] is T1, human TLR5 (293-hTLR5-LacZ reporter cells) (human, UniProt O60602 21-858). As to the kind of experiment: cell-based or functional assay.
Experiment [2] has as its target T1, human TLR5 (293-hTLR5-LacZ reporter …). As to the kind of experiment: cell-based or functional assay. The source holds these as a separate data set.

T1 sequence (O60602 21-858): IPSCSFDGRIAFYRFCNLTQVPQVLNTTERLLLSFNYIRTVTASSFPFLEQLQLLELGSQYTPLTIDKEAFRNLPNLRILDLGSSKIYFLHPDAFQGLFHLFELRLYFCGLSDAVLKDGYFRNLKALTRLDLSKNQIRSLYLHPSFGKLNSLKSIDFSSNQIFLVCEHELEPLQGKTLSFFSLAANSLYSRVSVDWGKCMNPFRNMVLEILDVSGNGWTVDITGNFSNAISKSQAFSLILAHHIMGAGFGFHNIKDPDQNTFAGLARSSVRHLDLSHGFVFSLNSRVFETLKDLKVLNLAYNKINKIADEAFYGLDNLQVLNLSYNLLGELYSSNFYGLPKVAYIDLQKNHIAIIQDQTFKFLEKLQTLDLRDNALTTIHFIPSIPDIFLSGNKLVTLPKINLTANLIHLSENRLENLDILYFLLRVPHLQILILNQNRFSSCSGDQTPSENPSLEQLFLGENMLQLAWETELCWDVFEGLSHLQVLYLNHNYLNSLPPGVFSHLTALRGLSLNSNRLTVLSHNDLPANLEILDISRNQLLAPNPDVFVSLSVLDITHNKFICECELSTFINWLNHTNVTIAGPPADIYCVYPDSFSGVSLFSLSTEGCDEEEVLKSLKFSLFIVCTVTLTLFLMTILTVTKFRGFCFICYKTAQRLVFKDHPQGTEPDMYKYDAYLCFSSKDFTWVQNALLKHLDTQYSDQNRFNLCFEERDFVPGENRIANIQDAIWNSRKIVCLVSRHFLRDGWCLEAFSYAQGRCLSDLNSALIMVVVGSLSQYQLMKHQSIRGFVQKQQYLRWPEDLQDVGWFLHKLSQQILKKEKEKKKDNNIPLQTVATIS

B1: 33TX2 (ligand)
chain: MHHHHHHAVPRGSGLRINSAKDDAAGQAAANRATSNIKGLTQASRNAADGISIAQTTEGALNEINNNLQRVRELSVQATAGANADAALKAIQAEIQQRLEEIDRVSQQTQAAAVKVLSQDNAMAIQVGANDGAAITIDLQKIDVKSLGLDGFNVNSPGSTANPLASIDSALSKVDAVRSSLGAIQNRFDSAITNLGNTVTNLNSARSRIEDADYATEVSQMSKAQILDQAGTSTLAQANQVPQNVLSLLR
With B1, in experiment [1], the 50% effective concentration (EC50) was 0.254 ng/mL and the “EC59(TEM)/EC50(33MX)” value was 4.7 ratio. Further, in experiment [2], the “EC50, ng/ml (NF-κB reporter enzyme activity)” value (“EC50, ng/ml” below) is 0.137 ng/mL; the “EC50, pM (NF-κB reporter enzyme activity)” value (“EC50, pM” for short) is 5.46 pM; the “Mut. EC50/EC50 33MX” value worked out at 3.34 ratio; the “Mut. EC50/EC50 CBLB502” value amounted to 5.94 ratio.

B2: 491TEMX (ligand)
chain: MSGLRINSAKDDAAGQAAANRATSNIKGLTQASRNAADGISIAQTTEGALNEINNNLQRVRELSVQATAGANADAALKAIQAEIQQRLEEIDRVSQQTQAAAVKVLSQDNAMAIQVGANDGAAITIDLQKIDVKSLGLDGFNVNSPGSTANPLASIDSALSKVDAVRSSLGAIQNRFDSAITNLGNTVTNLNSARSRIEDADYATEVSQMSKAQILDQAGTSTLAQLVPRGSHHHHHHG
As for B2, in experiment [1], the midpoint of the response, the EC50, lay at 0.188 ng/mL and the “EC59(TEM)/EC50(33MX)” value is 2.9 ratio. Also, in experiment [2], the “EC50, ng/ml” value was found to be 0.114 ng/mL; the “EC50, pM” value stood at 4.35 pM; the “Mut. EC50/EC50 33MX” value stood at 2.66 ratio; the “Mut. EC50/EC50 CBLB502” value turned out to be 4.73 ratio.

B3: 33MX (ligand)
chain: MSGLRINSAKDDAAGQAIANRFTSNIKGLTQASRNAADGISIAQTTEGALNEINNNLQRVRELSVQATAGANADAALKAIQAEIQQRLEEIDRVSQQTQAAAVKVLSQDNAMAIQVGANDGAAITIDLQKIDVKSLGLDGFNVNSPGSTANPLASIDSALSKVDAVRSSLGAIQNRFDSAITNLGNTVTNLNSARSRIEDADYATEVSQMSKAQILQQAGTSVLAQANQVPQNVLSLLVPRGSHHHHHHG
Consider B3, for which, in experiment [2], the “EC50, ng/ml” value worked out at 0.043 ng/mL; the “EC50, pM” value turned out to be 1.63 pM; the “Mut. EC50/EC50 CBLB502” value amounted to 1.78 ratio.

Broadly, the EC50 is the concentration giving half of the maximal effect. Read a low EC50 as greater potency.
